No constants are given. Whether binding was seen depends on the method and setting. For some assays here: In cells and extracts the contact can be indirect. Some results given as binding are weak or reduced against the parent protein; the word gives no strength. For some assays here: Where a sequence is shown, tags or fusion partners need not be part of it. Each block holds one substance with its values, some of them ahead of it.
Columns and labels:
[1] = molecular target: T1, GST-RasGAP (construct not told; GST pull-downs of Figures S5 and S6) (UniProt P20936); test: pull-down; GST pulldown with the lysate from 293 cells, which express all ERMs and merlin; only the target purified
T1 sequence: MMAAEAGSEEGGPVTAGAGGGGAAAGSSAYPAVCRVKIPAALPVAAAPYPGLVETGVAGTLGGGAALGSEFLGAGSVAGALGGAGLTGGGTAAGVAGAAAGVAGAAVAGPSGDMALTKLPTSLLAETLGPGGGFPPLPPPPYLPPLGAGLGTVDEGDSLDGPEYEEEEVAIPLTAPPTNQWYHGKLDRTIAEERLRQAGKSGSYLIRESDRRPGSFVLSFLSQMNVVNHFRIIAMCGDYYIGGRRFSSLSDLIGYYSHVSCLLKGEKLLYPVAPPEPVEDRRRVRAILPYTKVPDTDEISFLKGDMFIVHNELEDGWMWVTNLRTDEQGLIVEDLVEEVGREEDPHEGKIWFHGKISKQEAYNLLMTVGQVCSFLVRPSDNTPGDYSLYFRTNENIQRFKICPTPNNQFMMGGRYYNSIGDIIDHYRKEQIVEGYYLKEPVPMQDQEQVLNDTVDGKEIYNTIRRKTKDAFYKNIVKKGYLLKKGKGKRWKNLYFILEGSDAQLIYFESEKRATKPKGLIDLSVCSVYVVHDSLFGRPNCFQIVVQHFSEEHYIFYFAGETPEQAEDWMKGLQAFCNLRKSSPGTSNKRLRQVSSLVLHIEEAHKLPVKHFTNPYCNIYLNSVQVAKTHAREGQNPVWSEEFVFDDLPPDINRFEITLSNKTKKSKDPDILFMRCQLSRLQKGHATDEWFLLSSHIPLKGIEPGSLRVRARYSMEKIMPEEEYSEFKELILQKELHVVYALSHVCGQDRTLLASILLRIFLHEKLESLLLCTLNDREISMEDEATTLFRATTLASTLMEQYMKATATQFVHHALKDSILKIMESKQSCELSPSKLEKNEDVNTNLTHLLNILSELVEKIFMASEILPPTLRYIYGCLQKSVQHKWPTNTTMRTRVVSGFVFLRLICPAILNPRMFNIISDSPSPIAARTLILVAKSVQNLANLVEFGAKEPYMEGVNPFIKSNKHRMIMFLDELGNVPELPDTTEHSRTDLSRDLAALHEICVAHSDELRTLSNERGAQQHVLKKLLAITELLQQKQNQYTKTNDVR

Protein sequences, listed by entry. Tags and fused reporters are not part of them.
UniProt P15311: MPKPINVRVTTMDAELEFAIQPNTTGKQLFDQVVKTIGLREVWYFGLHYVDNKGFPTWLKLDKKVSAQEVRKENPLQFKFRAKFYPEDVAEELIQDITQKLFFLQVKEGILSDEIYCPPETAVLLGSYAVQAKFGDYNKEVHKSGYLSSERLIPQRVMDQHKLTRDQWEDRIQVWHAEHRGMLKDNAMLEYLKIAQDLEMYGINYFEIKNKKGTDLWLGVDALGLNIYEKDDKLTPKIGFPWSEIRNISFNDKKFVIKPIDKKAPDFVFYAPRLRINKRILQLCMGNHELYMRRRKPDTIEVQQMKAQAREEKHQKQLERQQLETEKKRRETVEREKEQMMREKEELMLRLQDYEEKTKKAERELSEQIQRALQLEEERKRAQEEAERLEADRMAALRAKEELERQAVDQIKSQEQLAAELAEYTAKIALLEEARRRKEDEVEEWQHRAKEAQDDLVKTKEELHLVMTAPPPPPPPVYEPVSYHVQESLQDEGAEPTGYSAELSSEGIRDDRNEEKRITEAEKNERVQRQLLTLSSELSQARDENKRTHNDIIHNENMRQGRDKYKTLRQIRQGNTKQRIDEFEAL
UniProt P35241: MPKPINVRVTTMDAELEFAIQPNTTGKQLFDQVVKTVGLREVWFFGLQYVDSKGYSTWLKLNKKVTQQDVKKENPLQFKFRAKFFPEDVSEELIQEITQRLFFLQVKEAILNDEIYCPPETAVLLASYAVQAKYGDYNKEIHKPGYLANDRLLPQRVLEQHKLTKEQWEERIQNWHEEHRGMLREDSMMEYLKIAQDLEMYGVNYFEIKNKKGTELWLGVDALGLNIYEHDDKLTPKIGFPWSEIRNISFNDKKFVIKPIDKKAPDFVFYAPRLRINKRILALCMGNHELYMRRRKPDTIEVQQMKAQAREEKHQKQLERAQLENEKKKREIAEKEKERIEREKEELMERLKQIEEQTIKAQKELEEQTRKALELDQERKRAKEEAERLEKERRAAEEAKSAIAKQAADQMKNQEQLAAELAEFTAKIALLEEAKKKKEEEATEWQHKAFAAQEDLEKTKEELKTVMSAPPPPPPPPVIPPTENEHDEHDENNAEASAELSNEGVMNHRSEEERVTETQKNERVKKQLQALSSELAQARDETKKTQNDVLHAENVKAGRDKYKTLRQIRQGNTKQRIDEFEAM

EGFP-PH = molecular target: T2, EGFP-PH (UniProt P20936); test: co-IP; merlin cotransfected with EGFP-RasGAP constructs in Sc4 cells (merlin-deficient)
T2 sequence: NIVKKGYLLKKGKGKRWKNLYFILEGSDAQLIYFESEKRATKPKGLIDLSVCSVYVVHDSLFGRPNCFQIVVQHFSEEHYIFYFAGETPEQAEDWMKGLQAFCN

EGFP-RasGAP = molecular target: T3, EGFP-RasGAP (UniProt P20936); test: as above
T3 sequence: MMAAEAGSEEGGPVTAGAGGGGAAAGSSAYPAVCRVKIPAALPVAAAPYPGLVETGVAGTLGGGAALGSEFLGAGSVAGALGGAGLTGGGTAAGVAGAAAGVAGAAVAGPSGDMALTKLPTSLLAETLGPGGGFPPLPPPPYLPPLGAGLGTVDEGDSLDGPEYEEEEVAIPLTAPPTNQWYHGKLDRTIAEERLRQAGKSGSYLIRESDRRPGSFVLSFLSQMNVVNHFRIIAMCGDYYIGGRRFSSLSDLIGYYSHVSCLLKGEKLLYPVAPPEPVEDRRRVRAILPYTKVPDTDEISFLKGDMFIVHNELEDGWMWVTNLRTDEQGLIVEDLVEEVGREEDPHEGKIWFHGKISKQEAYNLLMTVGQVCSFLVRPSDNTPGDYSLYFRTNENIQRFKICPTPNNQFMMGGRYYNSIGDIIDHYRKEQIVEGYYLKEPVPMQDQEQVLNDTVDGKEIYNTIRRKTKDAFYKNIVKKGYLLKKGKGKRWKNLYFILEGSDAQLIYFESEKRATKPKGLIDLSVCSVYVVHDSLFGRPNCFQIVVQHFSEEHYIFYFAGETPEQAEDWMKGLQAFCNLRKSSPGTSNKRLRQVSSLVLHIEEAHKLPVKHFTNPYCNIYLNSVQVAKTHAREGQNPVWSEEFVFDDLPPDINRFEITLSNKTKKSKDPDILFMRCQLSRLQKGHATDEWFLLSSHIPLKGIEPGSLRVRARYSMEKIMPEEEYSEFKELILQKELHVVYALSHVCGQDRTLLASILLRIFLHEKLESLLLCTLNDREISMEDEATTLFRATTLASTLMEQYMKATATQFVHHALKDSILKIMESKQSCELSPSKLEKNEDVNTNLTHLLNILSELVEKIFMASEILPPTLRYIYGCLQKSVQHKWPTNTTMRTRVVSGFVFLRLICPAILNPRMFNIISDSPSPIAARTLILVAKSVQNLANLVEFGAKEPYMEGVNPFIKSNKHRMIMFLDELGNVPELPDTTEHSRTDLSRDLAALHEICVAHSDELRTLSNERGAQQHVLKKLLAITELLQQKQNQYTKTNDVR

[2] = molecular target: GST-merlin FERM (aa 1–313) (UniProt P35240); test: pull-down; GST-merlin fragments pull down HRas 1–166 preloaded with GDP or GTPγS; western blot; all proteins purified from E. coli; both purified
[3] = molecular target: GST-merlin α-helical-tail domains (aa 312–595) (UniProt P35240); test: as above
Cerl-RasGAP = molecular target: T4, Cerl-RasGAP (UniProt P20936); test: split reporter; BiFC with split cerulean (Cerf, Cerl) constructs cotransfected with pEYFP-C1 into 293T cells, fixed about 48 h later
T4 sequence: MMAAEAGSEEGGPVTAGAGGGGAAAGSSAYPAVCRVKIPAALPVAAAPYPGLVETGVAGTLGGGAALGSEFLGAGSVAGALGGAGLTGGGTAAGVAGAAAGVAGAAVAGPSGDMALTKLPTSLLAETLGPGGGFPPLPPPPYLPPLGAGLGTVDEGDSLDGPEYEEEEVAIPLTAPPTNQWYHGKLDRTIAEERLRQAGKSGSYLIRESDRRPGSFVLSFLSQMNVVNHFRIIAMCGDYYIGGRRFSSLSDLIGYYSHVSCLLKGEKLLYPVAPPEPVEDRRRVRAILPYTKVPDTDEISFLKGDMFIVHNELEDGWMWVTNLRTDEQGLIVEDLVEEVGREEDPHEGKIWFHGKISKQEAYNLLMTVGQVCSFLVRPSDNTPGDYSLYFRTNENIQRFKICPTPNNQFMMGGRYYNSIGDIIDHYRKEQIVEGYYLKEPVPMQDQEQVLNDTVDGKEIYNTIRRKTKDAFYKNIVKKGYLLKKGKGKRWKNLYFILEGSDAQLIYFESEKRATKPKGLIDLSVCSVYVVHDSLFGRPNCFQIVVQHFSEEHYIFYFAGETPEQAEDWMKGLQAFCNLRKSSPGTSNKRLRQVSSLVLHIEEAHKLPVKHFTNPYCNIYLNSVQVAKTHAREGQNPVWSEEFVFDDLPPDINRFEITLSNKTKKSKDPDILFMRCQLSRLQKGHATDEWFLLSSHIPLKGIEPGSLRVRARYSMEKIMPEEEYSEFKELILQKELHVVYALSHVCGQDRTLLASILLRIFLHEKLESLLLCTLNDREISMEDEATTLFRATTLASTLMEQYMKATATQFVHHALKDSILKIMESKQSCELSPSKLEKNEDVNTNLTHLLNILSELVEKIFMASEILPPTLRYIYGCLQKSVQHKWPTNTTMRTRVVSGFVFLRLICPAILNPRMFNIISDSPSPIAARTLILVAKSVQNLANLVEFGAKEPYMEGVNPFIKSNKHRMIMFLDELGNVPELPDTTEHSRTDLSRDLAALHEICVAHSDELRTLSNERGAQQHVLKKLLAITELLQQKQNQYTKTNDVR

Substance: merlin cotransfected in Sc4 cells (from UniProt P35240 1-595)
binding (EGFP-PH): binds | binding (EGFP-RasGAP): binds

Substance: HRas 1–166 (from UniProt P01112 1-166) (domain or fragment)
binding [2]: binds weakly | binding [3]: no binding

Substance: ezrin of 293 cells (from UniProt P15311 1-586)
binding [1]: no binding

Substance: endogenous merlin of 293 cells (from UniProt P35240 1-595)
binding [1]: binds

Results, then the substance that gave them:

binding [1]: binds weakly
Substance: radixin of 293 cells (from UniProt P35241 1-583)

binding (Cerl-RasGAP): binds
Substance: Cerf-merlin (from UniProt P35240 1-595)

Source: publication PMC6756068, “The NF2 tumor suppressor merlin interacts with Ras and RasGAP, which may modulate Ras signaling” (Oncogene, 2019)
